Series [1] deals with the molecule itself. The series can be described thus: negative stain TEM.
Series [2] concerns the molecule itself. The series can be described thus: negative stain TEM. The source holds these as a separate data set.

Read-outs that look alike come from different tables or passages of the source.

B1: lipidated recombinant ApoE2 (rApoE2-DMPC) (natural protein)
chain: not shown
Consider B1, for which the “stoichiometry N” value in the series “negative stain TEM [1]” was found to be 2.

B2: astrocyte-secreted ApoE2 lipoprotein (human Apolipoprotein E2) (natural protein)
chain: not shown
Turning to B2, in “negative stain TEM [2]”, the “stoichiometry N” value turned out to be 2.

In general, stoichiometry N refers to a count of units in the complex or per binding partner.

(Values after paper PMC10994765 (Neuron, 2024).)
